Measurements from the supplement of paper PMC11417369.
Some of the results follow.

tested on: PF3D7_0420300 AP2 domain 1 (GST-tagged); assay: gcPBM binding intensity (ln(normalized median fluorescence intensity)); higher = stronger DNA binding
Outline: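 DNA-binding domains from P. falciparum, fused to GST and produced in E. coli, were put on an Agilent 4 × 180k double-stranded probe array for 1 h in 1× PBS holding 1% milk, 0.2 mg/ml BSA, 0.5% salmon testes DNA and 0.03% Triton X-100. Probes were primer-extended, 36 bp long and drawn from intergenic genomic regions, with negative controls included. After Alexa488 anti-GST antibody detection and a 488 nm scan, binding intensity was set as the highest Masliner-normalised natural-log median intensity across replicate spots of either probe orientation.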

Sequence | gcPBM binding intensity (ln)
ATATCAAATAGACAAACACACAAAGGAAGAGTGAAA [CACACA_site3921] | 9.86
ATCTATATTATTTCTACACACATATCTATAATATGT [CACACA_site7561] | 9.75
TTTTTTTTTTTGTGTGCATGTGCTAGGAAAGGTAGG [TGCATGCA_site330] | 9.2
ATATATTTTGGGGACTTTTTAAAAAAGAAGTATTAA [TGCATGCA_negctrl_site337] | 8.85
TTTTTGTTAATAAGTATGCACTATCTCATTTTTGTA | 9.3
TTTCTATTACGAACGTGTACATACATTATTCTTAAA [XGTACX_site5816] | 9.27
TAGAAAAAAATAGATGCATGCAATGAATGAATAATA [TGCATGCA_site14] | 9.54
GAGCATTACACATATACACACATATAAATAAACATA [CACACA_site7315] | 9.77
TAGTAGTATTCATCCAGTACATATAAATGTATAATA [XGTACX_site7552] | 9.24
CTATACTATGAAAAGTGTACGAATAGCTAGCTATTT [XGTACX_site5927] | 9.23
GAGAAATTTATACATACACACATATAAATATTATAG [CACACA_site7819] | 9.6
CTTTGCATTACGAACATACACACAGAATAACTGAAA [CACACA_site3024] | 9.53
TGTTATTATTAAGACACACACACAAAAAAAAAAAAA [CACACA_site1481] | 9.83
ACAATGATAGTGTAAAGTACATATATATAAAAAAAT [XGTACX_site5928] | 9.69
TGAACTCATAGGAAAACACACATATGTGCAATATAT [CACACA_site6231] | 9.47
TTTATAATATGTTATACATGCAGGTACCTTTTTGTA [TGCATGCA_site746] | 9.19
ATTTATAATTTTTGAGCACACACAAGCATATATATA [CACACA_site8531] | 9.56
ATTAATAAAAGATAAAGTACAAATCGGAAAATGAAT [XGTACX_site7846] | 9.68
TTTCAATGTGACACGTGTCCGTAAAATTACATAATT [XGTACX_site7073] | 9.1
TTGTTCATCTTTTTTTTTTTTTTTTTTTTTTAAATC [CACACA_negctrl_site191] | 8.86
AAGATTAAACATTGCACACAGAAATATATTTTCTAT [CACACA_site2374] | 9.44
TATATTAACAAAATGGTGCAATAATTTCTATATTGT [GTGCAC_site9430] | 9.21

Sequence | gcPBM binding intensity (ln)
TGTGTAAGCACATACAAACACACAACCTTATTTTTA [CACACA_site2187] | 9.44
TTATTATATTAAAAGAGGACACATTTATTTTTTTTT [XGTACX_site1241] | 9.01
AAAAAAAAAAAAAAAAAAAAAAAAAAAAATAAAAAA [CACACA_negctrl_site59] | 9.21
AAAATATTTAATAGAAGTACACATGTATATATACAT [XGTACX_site8942] | 9.38
TTTTGAATATATTAAATAAATTAAAAATCTACAAAC [GTGCAC_negctrl_site622] | 9.01
AGATCATAATATTATACACACATTATATATCTGTAA [CACACA_site4925] | 9.59
TAATAAATTCAAAACATAAAAAGGAAAAAAAAAAAA [CACACA_negctrl_site1330] | 9.29
TTATTATATACAAAATGTACACAGAATAATTTGAAT [XGTACX_site2314] | 9.29
ATATATATATATATATGTACATAATATATTATATAT [XGTACX_site924] | 9.05
TTTTTTTTTTTTTTGGTGCAGTTCACATATTATATA [GTGCAC_site9996] | 9.11
TTTTTTTTTTTTTGAACACACATTATTAATTTTTAT [CACACA_site308] | 9.29
ATATATTTTTTTTATACATGCAATGCATTTACGTTG [TGCATGCA_site565] | 9.22
TTTTTTATATATTAGGAATTTATAAAATTAGAAGGT [GTGCAC_negctrl_site617] | 8.92
GTATTAATTTTAAGGTGTACGCAAAAAATTTAATTT [XGTACX_site718] | 9.09
AACCAGTTGATGTGTACACATATAGTAATAATTTTA [CACACA_site5564] | 9.41
TGTATAAAAAGAAAAAATCGTATGTGTTATCAAAAA [GTGCAC_negctrl_site490] | 9.31
ACGATTCAAAGGGAATATAAAATATTATTATCTATA [CACACA_negctrl_site1739] | 8.99
AATAGAATAATCCTTACACACACACCCACACGAATA [CACACA_site8053] | 10
AACCAATATGCGTATACACACATAAATATAAATATA [CACACA_site3780] | 9.59
ACATATTGTAGATATTGTACATATTGTGTATATATT [XGTACX_site7620] | 9.41
AATATGGAATGAAATAACAATCGGGAGTATATTACC [CACACA_negctrl_site93] | 9.72
TATATATATGTTCTTACACACACGAATATATATATG [CACACA_site3304] | 9.71
